The source of these data is the supplement of paper PMC12217912.

The other results are listed elsewhere or left out. The full chains were built here from the parent and the listed change. Inactive controls read about 0.05.

Sequences and labels used below:
B1: TEV protease; numbered along this chain (parent)
chain: MGESLFKGPRDYNPISSSICHLTNESDGHTTSLYGIGFGPFIITNKHLFRRNNGTLVVQSLHGVFKVKDTTTLQQHLVDGRDMIIIRMPKDFPPFPQKLKFREPQREERICLVTTNFQTKSMSSMVSDTSCTFPSGDGIFWKHWIQTKDGQCGSPLVSTRDGFIVGIHSASNFTNTNNYFTSVPKNFMELLTNQEAQQWVSGWRLNADSVLWGGHKVFMVKPEEPFQPVKEATQL

The test covers variants of B1. The test can be described thus: raw area under fraction-flipped curve 0-4 h after induction (AUC4h, not background-subtracted), DNA-recorder readout of cleavage of the substrate (dimensionless); higher = more cleavage of the substrate by the protease variant. Conditions: temperature: 34 °C; time window: 0-4 h after rhamnose induction.
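Also: Bxb1 expression induced with 0.2% (w/v) L-rhamnose at OD600 near 0.5, cultures sampled hourly, flipped fraction per protease–substrate barcode pair counted by paired-end Illumina sequencing.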

In the case of MMESLFKGPRDYNPISSSICHLTNESDGHTTSLYGIGFGPFIITNKHLFRRNNGTLVVQSLHGVFKVKDTTTLQQHLVDGRDMIIIRMPKDFPPFPQKLKFREPQREERICLVTTNFQTKSMSSMVSDTSCTFPSGDGIFWKHWIQTKDGQCGSPLVSTRDGFIVGIHSASNFTNTNNYFTSVPKNFMELLTNQEAQQWVSGWRLNADSVLWGGHKVFMVKPEEPFQPVKEATQL [G2M], the “area with substrate ENLYFFS” value was found to be 0.0649, the “area with substrate ENLYFGS” value turned out to be 0.064, the “area with substrate ENLYFIS” value stood at 0.0401 and the “area with substrate ENLYFKS” value was determined as 0.0212. Further, the “area with substrate ENLYFMS” value was determined as 0.0705, the “area with substrate ENLYFPS” value worked out at 0.0628, the “area with substrate ENLYFRS” value is 0.0641 and the “area with substrate ENLYFTS” value is 0.0526. Besides, the “area with substrate ENLYFVS” value was determined as 0.0885 and the “area with substrate ENLYFWS” value worked out at 0.0651.

With MGESLFKGPRDYNPISSSICHLTNESDGHTTSLYGIGFGPFIITNKHLFRRNNGTLVVQSLHGVFKVKDTTTLQQHLVDGRDMIIIRMPKDFPPFPQKLKFREPQREERICLVTTNFQTKSMKSMVSDTSCTFPSGDGIFWKHWIQTKDGQCGSPLVSTRDGFIVGIHSASNFTNTNNYFTSVPKNFMELLTNQEAQQWVSGWRLNADSVLWGGHKVFMVKPEEPFQPVKEATQL [S123K], the “area with substrate ENLYFES” value was determined as 0.0639, the “area with substrate ENLYFFS” value worked out at 0.0572, the “area with substrate ENLYFHS” value amounted to 0.0603 and the “area with substrate ENLYFIS” value amounted to 0.0482. Further, the “area with substrate ENLYFKS” value came out at 0.0645, the “area with substrate ENLYFMS” value was 0.0644, the “area with substrate ENLYFPS” value came to 0.0533 and the “area with substrate ENLYFRS” value came out at 0.0501. The “area with substrate ENLYFTS” value is 0.0563 and the “area with substrate ENLYFYS” value was found to be 0.0612.

Regarding MGESLFKGPRDYNPISSSICHLTNESDGHTTSLYGIGFGPFIITNKHLFRRNNGTLVVQSLHGVFKVKDTTTLQQHLVDGRDMIIIRMPKDFPPFPQKLKFREPQREERICLVTTNFQTKSMSSMVSDTSCTFPSGDGIFWKHWIQTKDGQCGSPLVSTRDGFIVGIHSASNFTNTNNYFTSVPKNFMELLTNQEAQQWVSGWRLNADSVLWGGHKVFMVKPEEPFQPVKTATQL [E231T], the “area with substrate ENLYFES” value is 0.07, the “area with substrate ENLYFFS” value worked out at 0.0782, the “area with substrate ENLYFHS” value came out at 0.065 and the “area with substrate ENLYFIS” value is 0.0495. Moreover, the “area with substrate ENLYFKS” value was 0.059, the “area with substrate ENLYFMS” value was 0.0732, the “area with substrate ENLYFPS” value is 0.0549 and the “area with substrate ENLYFRS” value amounted to 0.0643. For the same variant, the “area with substrate ENLYFSS” value was 0.0722, the “area with substrate ENLYFTS” value worked out at 0.0486, the “area with substrate ENLYFVS” value stood at 0.0568 and the “area with substrate ENLYFWS” value came out at 0.0646. The “area with substrate ENLYFYS” value is 0.0657.

In the case of MGESLFKGPRDYNPISSSICHLTNESDGHTTSLYGIGFGPFIITNKHLFRRNNGTLVVQSLHGVFKVKDTTTLQQHLVDGRDMIIIRMPKDFPPFPQKLKFRAPQREERICLVTTNFQTKSMSSMVSDTSCTFPSGDGIFWKHWIQTKDGQCGSPLVSTRDGFIVGIHSASNFTNTNNYFTSVPKNFMELLTNQEAQQWVSGWRLNADSVLWGGHKVFMVKPEEPFQPVKEATQL [E103A], the “area with substrate ENLYFFS” value came out at 0.0525, the “area with substrate ENLYFHS” value was determined as 0.0556, the “area with substrate ENLYFIS” value is 0.0587 and the “area with substrate ENLYFLS” value is 0.0646. For the same variant, the “area with substrate ENLYFPS” value amounted to 0.0437, the “area with substrate ENLYFTS” value was 0.0512, the “area with substrate ENLYFWS” value worked out at 0.0502 and the “area with substrate ENLYFYS” value is 0.037.

For MGESLFKGPRDYNPISSSICHLTNESDGHTTSLYGIGFGPFIITNKHLFRRNNGTLVVQSLHGVFKVKDTTTLQQHLVDGRDMIIIRMPKDFPPFPQKLKFREPQREERICLVTTNFQTKSMSSMVSDTSCTFPSGDGIFWKHWIQTKDGQCGSPLVSTRDGFIVGIHFASNFTNTNNYFTSVPKNFMELLTNQEAQQWVSGWRLNADSVLWGGHKVFMVKPEEPFQPVKEATQL [S169F], the “area with substrate ENLYFES” value is 0.046, the “area with substrate ENLYFFS” value came out at 0.0586, the “area with substrate ENLYFHS” value was found to be 0.0527 and the “area with substrate ENLYFIS” value is 0.0584. The “area with substrate ENLYFMS” value was found to be 0.0585, the “area with substrate ENLYFNS” value worked out at 0.058, the “area with substrate ENLYFPS” value was determined as 0.04 and the “area with substrate ENLYFRS” value stood at 0.0673. Further, the “area with substrate ENLYFTS” value stood at 0.0753.

On to MGESLFKGPRDYNPISSSICHLTNESDGHTTSLYGIGFGPFIITNKHLFRRNNGTLVVQSLHGVFKVKDTTTLQQHLVDGRDMIIIRMPKDFPPFPQKLKFREPQREERICLVTTNFQTKSMSSMVSDTSCTFPSGDGICWKHWIQTKDGQCGSPLVSTRDGFIVGIHSASNFTNTNNYFTSVPKNFMELLTNQEAQQWVSGWRLNADSVLWGGHKVFMVKPEEPFQPVKEATQL [F140C], for which the “area with substrate ENLYFES” value was 0.0545, the “area with substrate ENLYFFS” value is 0.0621, the “area with substrate ENLYFHS” value was 0.0586 and the “area with substrate ENLYFIS” value is 0.0535. The “area with substrate ENLYFKS” value came to 0.0517, the “area with substrate ENLYFLS” value amounted to 0.0616, the “area with substrate ENLYFMS” value was 0.0559 and the “area with substrate ENLYFNS” value was found to be 0.0731. Also, the “area with substrate ENLYFPS” value came out at 0.0625, the “area with substrate ENLYFRS” value is 0.0729, the “area with substrate ENLYFSS” value was 0.0681 and the “area with substrate ENLYFTS” value was found to be 0.0645. Moreover, the “area with substrate ENLYFVS” value was 0.0641, the “area with substrate ENLYFWS” value came out at 0.0492 and the “area with substrate ENLYFYS” value worked out at 0.0687.

For MGESLFKGPRDYNPISSSICHLTNESDGHTTSLYGIGFGPFIITNKHLFRRNNGTLVVQSLHYVFKVKDTTTLQQHLVDGRDMIIIRMPKDFPPFPQKLKFREPQREERICLVTTNFQTKSMSSMVSDTSCTFPSGDGIFWKHWIQTKDGQCGSPLVSTRDGFIVGIHSASNFTNTNNYFTSVPKNFMELLTNQEAQQWVSGWRLNADSVLWGGHKVFMVKPEEPFQPVKEATQL [G63Y], the “area with substrate ENLYFFS” value came to 0.0611, the “area with substrate ENLYFGS” value was 0.0516, the “area with substrate ENLYFHS” value was determined as 0.0551 and the “area with substrate ENLYFIS” value amounted to 0.0546. Moreover, the “area with substrate ENLYFLS” value was 0.054, the “area with substrate ENLYFMS” value turned out to be 0.0484, the “area with substrate ENLYFPS” value came to 0.0522 and the “area with substrate ENLYFRS” value is 0.0655. The “area with substrate ENLYFSS” value was found to be 0.0866, the “area with substrate ENLYFTS” value was 0.0556, the “area with substrate ENLYFVS” value is 0.0697 and the “area with substrate ENLYFWS” value stood at 0.0544. For the same variant, the “area with substrate ENLYFYS” value stood at 0.0454.

As for MGESLFKGPRDYNPISSSICHLTNESDGHTTSLYGIGFGPFIITNKHLFRRNNGTLVVQSLHGVFKVKDTTTLQQHLVDGRDMIIIRMPKDFPPFPQKLKFREPQREERICLVTTNFQTKSMSSMVSDTSCTFPSGDGIFWKHWFQTKDGQCGSPLVSTRDGFIVGIHSASNFTNTNNYFTSVPKNFMELLTNQEAQQWVSGWRLNADSVLWGGHKVFMVKPEEPFQPVKEATQL [I145F], the “area with substrate ENLYFFS” value came to 0.075, the “area with substrate ENLYFGS” value is 0.0733, the “area with substrate ENLYFIS” value stood at 0.0642 and the “area with substrate ENLYFKS” value came out at 0.0599. The “area with substrate ENLYFMS” value is 0.073, the “area with substrate ENLYFPS” value was determined as 0.0555 and the “area with substrate ENLYFVS” value turned out to be 0.0589.

In the case of MGESLFKGPRDYNPISSSICHLTNESDGHTTSLYGIGFGPFIITNKHLFRRNNGTLVVQSLHGVFKVKDTTTLQQHLVDGRDMIIIRMPKDFPPFPQKLKFREPQREERICLVTTNFQTKSQSSMVSDTSCTFPSGDGIFWKHWIQTKDGQCGSPLVSTRDGFIVGIHSASNFTNTNNYFTSVPKNFMELLTNQEAQQWVSGWRLNADSVLWGGHKVFMVKPEEPFQPVKEATQL [M122Q], the “area with substrate ENLYFES” value came out at 0.0519, the “area with substrate ENLYFGS” value amounted to 0.0814, the “area with substrate ENLYFHS” value was found to be 0.0566 and the “area with substrate ENLYFIS” value is 0.0653. Moreover, the “area with substrate ENLYFKS” value was found to be 0.0675, the “area with substrate ENLYFMS” value stood at 0.0632, the “area with substrate ENLYFPS” value came out at 0.0774 and the “area with substrate ENLYFRS” value turned out to be 0.0459. In addition, the “area with substrate ENLYFVS” value was determined as 0.0482, the “area with substrate ENLYFWS” value was 0.0646 and the “area with substrate ENLYFYS” value is 0.0638.
